Measured values from the supplement of paper PMC6531468.
Some of the results follow. These are enrichments in a pooled selection; single values are uncertain. Each score is taken over the longer molecules that contain the sequence shown.

Experiments:
Assay in all cases: 6-mer SELEX enrichment z-score vs GST control; IMP3 is the RNA-binding protein IGF2BP3; higher = more enriched by binding
IMP3 KH1-4 = conditions: construct: KH1-4 (164-579); SELEX round: R4
Protocol: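 SELEX-seq with GST-tagged IMP3 KH1-4 (Pro164-Lys579) and an N40 RNA pool, round 4. 6-mer z-score of sequence-tag enrichment normalised to the corresponding GST SELEX round; RNA k-mers written as DNA (T for U).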

IMP3 RRM1-2 = conditions: construct: RRM1-2 (1-163); SELEX round: R2
Protocol: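 SELEX-seq with GST-tagged IMP3 RRM1-2 (Met1-Asn163) and an N40 RNA pool, round 2. 6-mer enrichment z-score normalised to GST SELEX. RNA written as DNA (T = U).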

IMP3 full-length = IMP3 full-length (UniProt O00425); conditions: construct: FL IMP3 (1-579); SELEX round: R4
Protocol: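 SELEX-seq with GST-tagged full-length IMP3 and an N40 RNA pool, round 4. Each 6-mer is scored as an enrichment z-score of sequence tags containing it, normalised to the matching GST SELEX round. RNA written as DNA (T = U).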

IMP3 KH1-2 = conditions: construct: KH1-2 (164-376); SELEX round: R4
Protocol: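 SELEX-seq with GST-tagged IMP3 KH1-2 (Pro164-Phe376) and an N40 RNA pool, round 4 (stringent 300/600 mM KCl washes). 6-mer z-score of sequence-tag enrichment normalised to the corresponding GST SELEX round; RNA k-mers written as DNA (T for U).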

IMP3 KH3-4 = conditions: construct: KH3-4 (377-579); SELEX round: R4
Protocol: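 SELEX-seq with GST-tagged IMP3 KH3-4 (Pro377-Lys579) and an N40 RNA pool, round 4. 6-mer z-score of sequence-tag enrichment normalised to the corresponding GST SELEX round; RNA k-mers written as DNA (T for U).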

Sequence of IMP3 KH1-4 (chain, as listed by the source): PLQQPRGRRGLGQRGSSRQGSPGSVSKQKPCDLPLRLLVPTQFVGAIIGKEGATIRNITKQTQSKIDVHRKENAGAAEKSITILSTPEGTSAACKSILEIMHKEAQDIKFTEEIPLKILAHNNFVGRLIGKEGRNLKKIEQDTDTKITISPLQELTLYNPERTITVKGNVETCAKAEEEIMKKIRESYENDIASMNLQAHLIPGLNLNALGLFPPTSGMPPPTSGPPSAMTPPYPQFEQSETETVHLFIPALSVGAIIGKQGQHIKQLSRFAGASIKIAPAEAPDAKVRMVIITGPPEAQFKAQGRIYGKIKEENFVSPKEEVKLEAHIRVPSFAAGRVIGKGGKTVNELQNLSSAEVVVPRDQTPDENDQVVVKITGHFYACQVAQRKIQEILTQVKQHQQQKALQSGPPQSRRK
Sequence of IMP3 KH3-4 (chain, as listed by the source): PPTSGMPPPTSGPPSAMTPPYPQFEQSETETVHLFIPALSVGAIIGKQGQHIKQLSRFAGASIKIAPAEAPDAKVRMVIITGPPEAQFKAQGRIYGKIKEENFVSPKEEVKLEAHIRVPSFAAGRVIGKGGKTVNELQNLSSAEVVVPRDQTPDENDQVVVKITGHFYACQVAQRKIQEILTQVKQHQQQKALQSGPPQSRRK
Sequence of UniProt O00425 (O00425 whole entry): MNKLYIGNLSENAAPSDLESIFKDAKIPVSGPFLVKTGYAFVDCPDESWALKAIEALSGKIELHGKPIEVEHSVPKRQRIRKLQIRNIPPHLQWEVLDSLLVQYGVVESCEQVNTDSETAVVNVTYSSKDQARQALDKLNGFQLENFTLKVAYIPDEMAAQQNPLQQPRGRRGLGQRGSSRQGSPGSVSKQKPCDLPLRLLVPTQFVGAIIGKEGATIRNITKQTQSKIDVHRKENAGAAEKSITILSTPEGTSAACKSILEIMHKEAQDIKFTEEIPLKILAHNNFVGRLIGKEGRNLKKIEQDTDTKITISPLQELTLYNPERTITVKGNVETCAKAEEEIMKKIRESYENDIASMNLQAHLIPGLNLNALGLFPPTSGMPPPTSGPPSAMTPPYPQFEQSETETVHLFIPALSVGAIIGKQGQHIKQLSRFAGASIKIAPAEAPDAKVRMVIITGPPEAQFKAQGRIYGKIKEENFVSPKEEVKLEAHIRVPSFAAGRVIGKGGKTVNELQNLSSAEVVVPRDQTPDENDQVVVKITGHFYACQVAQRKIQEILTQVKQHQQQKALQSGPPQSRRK
Sequence of IMP3 RRM1-2 (chain, as listed by the source): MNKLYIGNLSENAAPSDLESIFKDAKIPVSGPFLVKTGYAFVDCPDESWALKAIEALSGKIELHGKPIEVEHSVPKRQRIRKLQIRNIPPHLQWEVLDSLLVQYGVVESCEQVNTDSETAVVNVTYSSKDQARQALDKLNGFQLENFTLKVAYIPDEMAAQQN
Sequence of IMP3 KH1-2 (chain, as listed by the source): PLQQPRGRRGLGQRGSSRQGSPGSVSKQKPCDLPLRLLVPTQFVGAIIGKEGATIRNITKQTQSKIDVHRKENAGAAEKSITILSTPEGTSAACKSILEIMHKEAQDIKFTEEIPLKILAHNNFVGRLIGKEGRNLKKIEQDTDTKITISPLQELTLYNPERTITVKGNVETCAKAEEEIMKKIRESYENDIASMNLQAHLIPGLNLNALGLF

Sequence	6-mer SELEX enrichment z-score (IMP3 KH1-4)	6-mer SELEX enrichment z-score (IMP3 RRM1-2)	6-mer SELEX enrichment z-score (IMP3 full-length)	6-mer SELEX enrichment z-score (IMP3 KH1-2)	6-mer SELEX enrichment z-score (IMP3 KH3-4)
TTCCGC	0.685	0.092	0.305	0.942	0.079
CTCGAC	-1.85	0.03	-0.703	-1.63	-1.67
GGGCTG	0.101	0.162	0.452	0.334	0.394
CGGTAT	-0.271	0.259	-0.028	-0.264	-0.115
TCTGAC	-0.293	-0.18	-0.24	-0.175	-0.464
GACGAG	-1.72	-0.977	-0.631	-1.49	-1.42
CTCACT	0.301	0.884	0.287	0.305	-0.192
CGGATT	0.231	-0.149	0.033	0.115	0.42
GAGCAT	-0.496	0.417	0.682	-0.538	-0.414
GAATTC	0.279	-0.135	-0.09	0.262	0.311
GGGGAT	0.825	0.014	0.417	0.992	0.977
CGAGGA	-0.611	-0.795	-0.305	-0.498	-0.422
TTAACA	1.47	0.365	0.306	1.68	2.22
CCGGCG	-0.78	0.066	0.665	-0.583	-0.592
TTCTCA	0.367	0.632	0.469	0.459	0.196
CTAGGG	-0.174	0.116	-0.11	-0.063	0.01
TGAGTT	-0.131	0.112	-0.204	-0.14	0.072
AAGATC	0.122	-0.36	-0.318	-0.102	0.228
GGGCAT	0.817	0.463	1.64	0.762	0.889
TAACCT	-0.683	-0.685	-1.24	-0.691	-0.806
GTGACT	-0.246	-0.25	-0.367	-0.28	-0.163
GAGCCG	-1.94	-0.753	-0.752	-1.66	-1.77
GCCCTA	-0.791	-0.434	-0.699	-0.698	-0.889
AGTCCC	-0.272	-0.435	-0.171	-0.333	-0.865
ACCCAA	-3.58	-1.56	-3.2	-3.57	-4.18
TTCGCT	0.295	0.312	0.128	0.356	0.328
GGCCCA	-0.606	-0.357	0.174	-0.53	-0.783
AGTCAC	0.474	0.424	0.67	0.19	0.029

Sequence	6-mer SELEX enrichment z-score (IMP3 KH1-4)	6-mer SELEX enrichment z-score (IMP3 RRM1-2)	6-mer SELEX enrichment z-score (IMP3 full-length)	6-mer SELEX enrichment z-score (IMP3 KH1-2)	6-mer SELEX enrichment z-score (IMP3 KH3-4)
ATCCAA	-1.26	-0.36	-1.06	-1.19	-1.47
ACTATC	0.536	0.471	-0.01	0.518	0.319
TACTTA	0.456	0.114	-0.123	0.529	0.69
GGTGCG	0.165	0.226	0.349	0.258	0.209
ATGTCC	0.554	-0.318	-0.071	0.11	-0.021
AACCAC	-0.31	1.08	-0.533	0.043	-1.01
CGATTC	-0.084	-0.08	-0.123	-0.115	-0.303
TTTACA	1.52	0.5	0.67	1.87	1.88
CACCCC	-0.425	-0.846	-0.88	-0.349	-1.66
GGCTTT	0.304	0.531	0.397	0.347	0.737
AAAGGG	0.039	-0.929	-0.584	0.195	0.696
TTGAAA	-0.074	-1.14	-0.987	-0.209	0.549
CGAGCG	-2.16	-0.036	-0.156	-1.92	-1.81
CTATCC	-0.528	-0.187	-0.653	-0.429	-0.703
GAGCTA	-1.52	-0.05	-0.744	-1.37	-1.22
AAGGTA	-0.468	-0.262	-0.36	-0.47	-0.147
GTCGCC	0.457	0.177	0.627	0.36	-0.029
ACAAAC	-0.042	1.42	0.327	0.617	-0.186
GTTTGC	-0.191	0.282	-0.125	-0.18	-0.137
AGCCGC	0.141	-0.098	0.456	0.238	-0.255
AATAAC	1.6	-0.973	-0.227	2	2.57
GAAAAC	-1.25	-2.17	-2.08	-1.26	-0.885
GCGTCG	-0.369	0.513	0.573	-0.223	-0.128
CGATAG	-0.288	-0.521	-0.204	-0.242	-0.103
AAAACG	-2.28	-2.76	-2.93	-2.29	-1.63
TAACTG	0.473	-0.557	-0.492	0.472	0.562
ATGGTC	0.259	0.207	0.369	0.16	0.214
